In PubChem BioAssay AID504332 (National Center for Advancing Translational Sciences (NCATS), 2011):
Hit rate of the full screen: of about 350,000 compounds, about 31,000 (8.9%) were called active. This list was built around the results that the source calls inconclusive (neither active nor inactive); the mix of calls is not that of the screen. Calls follow the shape of the dose curve; as a rule, active = well fitted inhibition curve with a large enough effect; inconclusive = small, poorly fitted or top-dose-only effect; inactive = no such curve, though single readings can be large or run the other way. Potencies beside an inconclusive call are fits to weak or partial responses and may not hold up.

Biological target: Histone-lysine N-methyltransferase EHMT2 (Homo sapiens) (UniProt Q96KQ7)
Chain of UniProt Q96KQ7 (Q96KQ7 whole entry, looked up): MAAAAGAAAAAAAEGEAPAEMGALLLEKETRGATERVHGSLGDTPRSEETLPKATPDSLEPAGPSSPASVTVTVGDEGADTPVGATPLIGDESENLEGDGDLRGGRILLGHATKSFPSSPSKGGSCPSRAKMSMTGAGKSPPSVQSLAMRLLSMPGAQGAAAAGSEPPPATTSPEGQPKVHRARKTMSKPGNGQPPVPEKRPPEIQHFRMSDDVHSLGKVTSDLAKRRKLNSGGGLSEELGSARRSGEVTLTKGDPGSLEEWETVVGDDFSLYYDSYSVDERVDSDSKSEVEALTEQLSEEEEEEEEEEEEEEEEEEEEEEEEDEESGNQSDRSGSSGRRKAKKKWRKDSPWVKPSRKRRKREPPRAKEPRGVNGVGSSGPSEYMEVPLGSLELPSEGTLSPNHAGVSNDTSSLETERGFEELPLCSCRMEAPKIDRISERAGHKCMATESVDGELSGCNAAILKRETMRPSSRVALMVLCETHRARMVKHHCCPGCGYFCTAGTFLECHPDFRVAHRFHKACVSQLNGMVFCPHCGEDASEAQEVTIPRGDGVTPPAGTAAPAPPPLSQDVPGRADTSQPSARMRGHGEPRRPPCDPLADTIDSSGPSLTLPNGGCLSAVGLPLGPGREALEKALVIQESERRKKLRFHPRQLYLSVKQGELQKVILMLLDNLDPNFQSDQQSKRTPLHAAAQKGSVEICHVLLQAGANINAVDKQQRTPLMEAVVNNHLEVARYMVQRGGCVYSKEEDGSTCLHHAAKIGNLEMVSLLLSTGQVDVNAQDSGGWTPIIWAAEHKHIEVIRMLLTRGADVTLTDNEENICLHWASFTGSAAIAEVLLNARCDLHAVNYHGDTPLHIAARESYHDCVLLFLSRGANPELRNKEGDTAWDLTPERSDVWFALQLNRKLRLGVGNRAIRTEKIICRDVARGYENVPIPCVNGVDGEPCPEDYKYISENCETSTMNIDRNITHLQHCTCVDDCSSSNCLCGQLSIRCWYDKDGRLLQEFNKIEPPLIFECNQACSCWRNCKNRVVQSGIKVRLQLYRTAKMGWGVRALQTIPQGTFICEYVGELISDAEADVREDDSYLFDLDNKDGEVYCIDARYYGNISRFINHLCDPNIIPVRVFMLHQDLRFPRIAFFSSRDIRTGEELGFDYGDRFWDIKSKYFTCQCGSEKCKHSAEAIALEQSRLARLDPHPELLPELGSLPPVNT
Test: qHTS Assay for Inhibitors of Histone Lysine Methyltransferase G9a; also: nearly all actives have a fitted effect of over 75% in size
Details: G9a H3K9 monomethylation, AlphaScreen, 2 h; activity, negative = inhibition: at 59 µM (top of the series) unless noted
In short: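 Compounds were preincubated with 20 nM G9a for 15 min, after which biotinylated H3K9 peptide (500 nM) and SAM (20 uM) started a 2 h room-temperature reaction. Monomethylated product was quantified by antibody-based AlphaScreen chemiluminescence.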
% is scaled to controls: 0 for no effect and ±100 for the full control effect; potency is read from the fitted curve at half-maximal effect; tags tell the direction and shape of the fitted curve.

Compound | Potency | activity, negative = inhibition
CC(=O)c1ccc(NC(=O)c2ccc(-c3ccc(Cl)cc3)o2)cc1 | inconclusive: 10 µM [inhibitor, partial curve] | 
COc1ccc(CN(CC(O)COc2cccc3[nH]cc(C)c23)C(C)(C)C)cc1 (stereo unspecified) | inconclusive: 89.1 µM [inhibitor, single point] | 
CN(C)CCN1C(=O)C(=O)/C(=C(/O)c2ccc(F)cc2)C1c1ccccc1 (stereo unspecified) | inconclusive: 89.1 µM [inhibitor, partial curve, poor fit] | 
CCOC(=O)C(C(=O)OCC)C(C)C#CCN1CCCCC1 (stereo unspecified) |  | inactive: 2.06%
CCc1ccccc1OCCCN1CCCC1 | active: 50.1 µM | 
CCN(CC)c1ccc(N)cc1S(=O)(=O)Nc1ccc(OC)cc1 |  | inconclusive: -66.4% [inhibitor] [at 12.7 µM]
COc1ccc(Oc2ccc(/C=C/C(=O)c3cccc(OC)c3)cc2[N+](=O)[O-])cc1 | inconclusive: 79.4 µM [inhibitor, single point] | 
Oc1ccc(/C=N/NC(=S)N2CCOCC2)cc1 | active: 50.1 µM | 
CC(C)CCN(C(=O)CCCSc1nc2ccccc2[nH]1)c1c(N)n(Cc2ccccc2)c(=O)[nH]c1=O | inconclusive: 56.2 µM [inhibitor, partial curve] | 
CC1=CC2=NC(=O)CC(C)(C(=O)N(CC(=O)NC3CCCC3)c3ccccc3C)N2C=C1 (stereo unspecified) |  | inactive: -1.56% [at 12.7 µM]
Cc1cccc(N2CCN(S(=O)(=O)c3c(C(=O)N4CCCCC4)c(C)n(C)c3C)CC2)c1C | inconclusive: 3.98 µM [inhibitor, full curve, poor fit] | 
Cc1ccc2nc(CCc3ccc(N)cc3)[nH]c2c1 | active: 35.5 µM | 
O=C(COC(=O)CCC(=O)c1cccs1)NCc1ccccc1 |  | inactive: -5.78% [at 102 µM]
Cc1nn(-c2ccc(N3CCCC3)nn2)c(C)c1CCC(=O)Nc1ccc(F)cc1F |  | inactive: 13.4%
COc1cccc(C(=O)N2CCN(c3ncccn3)CC2)c1 | inconclusive: 3.98 µM [inhibitor, single point] | 
CCOC(=O)C(=NCCCN(C)C)NNc1ccc(Br)cc1 | active: 7.08 µM | 
Cc1cc(C)nc(SCc2ccc(C(=O)N/N=C/c3cccc(O)c3O)cc2)n1 | inconclusive: 39.8 µM [inhibitor, single point] | 
O=C(COc1ccc(Cl)cc1)N1CCN(C(=O)c2cccc(F)c2)CC1 | inconclusive: 0.631 µM [inhibitor, single point] | 
O=c1oc(-c2cccc(S(=O)(=O)N3CCOCC3)c2)nc2ccccc12 | active: 10 µM | 
O=C(NCc1ccc(F)cc1)c1ccc(Nc2nc3ccccc3n3nnnc23)cc1 |  | inactive: 7.85%
COCCN=C1Sc2nc3ccc(C)cc3cc2CN1Cc1ccco1 | inconclusive: 25.1 µM [inhibitor, single point] | 
Cc1nnc(SCC(=O)N2CCN(C(=O)c3ccco3)CC2)n1C | inconclusive: 35.5 µM [inhibitor, single point] | 
COc1cccc(N(CC(=O)Nc2ccc3c(c2)OCO3)S(=O)(=O)c2ccccc2)c1 | inconclusive: 25.1 µM [inhibitor, single point] | 
COc1ccc(CNC(=O)c2cccc(N3CCCS3(=O)=O)c2)cc1OC |  | inactive: 7.32%

Compound | Potency | activity, negative = inhibition
CCN(CC)S(=O)(=O)c1ccc(C(=O)NCc2ccc3[nH]c4c(c3c2)CCCC4)cc1 | inconclusive: 89.1 µM [inhibitor, single point] | 
Cc1ccc(C(C)C)cc2c(C)ccc1-2 | active: 12.6 µM | 
CCn1c(SCC(=O)N/N=C/C=C\c2ccco2)nc2ccccc21 | active: 15.8 µM | 
CC(C)(C)CN1CCNC(=O)C1CC(=O)NCCN1CCCc2ccccc21 (stereo unspecified) | inconclusive: 44.7 µM [inhibitor, partial curve] | 
COc1cc(-c2nnc(COC(=O)c3nn(CC(C)C)c(=O)c4ccccc34)o2)cc(OC)c1OC | inconclusive: 70.8 µM [inhibitor, partial curve, poor fit] | 
Cc1nc(-c2ccccn2)nc(N(C)c2ccccc2)c1Cl |  | inactive: -18.6% [at 102 µM]
CCc1cccc(C)c1NC(=S)N(CCCN1CCN(C)CC1)Cc1cccs1 |  | inactive: 112%
COc1ccc(NC(=O)Nc2nnc(-c3ccccc3SCc3ccccc3)s2)cc1 |  | inactive: -16.1% [at 102 µM]
CCOC(=O)C1CCN(Cc2nc3ccc([N+](=O)[O-])cc3c(=O)n2-c2ccc(OC)cc2OC)CC1 | active: 31.6 µM | 
c1ccc(-c2cc(N3CCCCCC3)n[nH]2)cc1 |  | inconclusive: -75.3% [inhibitor]
CCN(CC(=O)Nc1c(F)cccc1F)C(=O)CNC(=O)c1ccc(C)s1 |  | inactive: 73.6% [at 102 µM]
Cc1c(C(=O)O)sc(S(=O)(=O)N2CCN(C(=O)CCc3ccccc3)CC2)c1C(=O)O | inconclusive: 70.8 µM [inhibitor, partial curve] | 
CC(C)c1ccc(C2CC(c3ccc(Br)cc3)=NN2C(N)=S)cc1 (stereo unspecified) | inconclusive: 100 µM [inhibitor, single point] | 
CCOC(=O)c1c(C)c(-c2ccccc2)n(CC(=O)NC2CCCCCC2)c1C |  | inactive: -2.6%
COc1ccccc1/C=C(/C(=O)OCC(=O)Nc1cc(C)ccc1C)c1ccccc1 | inconclusive: 15.8 µM [inhibitor, partial curve, poor fit] | 
CCOc1ccc(NC(=O)COC(=O)CCCc2c[nH]c3ccccc23)cc1 | inconclusive: 12.6 µM [inhibitor, partial curve, poor fit] | 
O=C(COC(=O)C(Cc1ccccc1)NC(=O)c1cccs1)NCc1ccccc1 (stereo unspecified) |  | inactive: -5.28% [at 12.7 µM]
C=CCSC1=C(C#N)C(c2ccccc2OCC)C(C#N)C(=O)N1 (stereo unspecified) | active: 44.7 µM | 
CC(C)c1ccc(NC(=O)c2ccc(Cn3nc(N4CCN(c5ccccc5)CC4)ccc3=O)o2)cc1 | inconclusive: 5.01 µM [inhibitor, partial curve] | 
Cc1ccc2nc(SCc3cn4c(C)cc(C)nc4n3)[nH]c2c1 | inconclusive: 31.6 µM [inhibitor, single point] | 
CCc1oc2ccccc2c1C(=O)c1cc(I)c(O)c(I)c1 |  | inactive: -39.6%
S=c1nc(-c2ccccc2)n(Cc2ccco2)c2c1CCCC2 | inconclusive: 89.1 µM [inhibitor, single point] | 
COc1cc(NC(=O)C2C3C=CC(C3)C2C(=O)O)c(OC)cc1Cl (stereo unspecified) | active: 11.2 µM | 
C/C(=N\OCC(=O)Nc1c(C)cc(C)cc1C)c1ccc2c(c1)OCCO2 | inconclusive: 89.1 µM [inhibitor, single point] | 

Compound | Potency | activity, negative = inhibition
CCOc1ncccc1C(=O)OC(C)C(=O)NC1CCCCC1 (stereo unspecified) | inconclusive: 79.4 µM [inhibitor, partial curve, poor fit] | 
COc1ccc2c(c1)C(=NNc1ccc(C(=O)O)cc1)c1cc(OC)ccc1-2 | inconclusive: 28.2 µM [inhibitor, full curve] | 
CCCOc1ccc(C(=O)NNC(=S)NC(=O)c2cccs2)cc1 | inconclusive: 89.1 µM [inhibitor, single point] | 
C=CCc1ccc(OCc2ccc(C(=O)Nc3ccc(NC(C)=O)cc3)o2)c(OC)c1 | inactive | 
C=CCn1c(SCC(=O)N2N=C(c3ccco3)CC2c2ccco2)nnc1-c1ccncc1 (stereo unspecified) |  | inactive: 2.67%
Cc1cc(C)c(/C=N/NC(=O)c2nnn(-c3nonc3N)c2CN2CCC(C)CC2)c(C)c1 | inconclusive: 89.1 µM [inhibitor, single point] | 
O=C(O)c1ccccc1OCC1CCCO1 (stereo unspecified) |  | inactive: 23.8% [at 102 µM]
COc1ccc(C2(C)NC(=O)N(CC(=O)N3CCc4ccccc43)C2=O)cc1OC (stereo unspecified) | inconclusive: 35.5 µM [inhibitor, single point] | 
Cc1c(S(=O)(=O)N2CCN(c3ccccc3)CC2)c(=O)n(C)c(=O)n1C | inconclusive: 89.1 µM [inhibitor, partial curve, poor fit] | 
NC(=O)C1CCN(C(=O)CCCCCn2c(=O)[nH]c3ccsc3c2=O)CC1 |  | inactive: -9.03%
Nc1c(-c2ccccc2)c(CSc2nc3ccccc3[nH]2)nn1-c1ccc(Cl)cc1 | inconclusive: 2.82 µM [inhibitor, full curve, poor fit] | 
CCN1CCN(C(c2ccccc2F)c2c(O)cc(C)n(CCOC)c2=O)CC1 (stereo unspecified) | inconclusive: 28.2 µM [inhibitor, single point] | 
CCCCCCCCCCOC(=O)Cn1c(COc2ccc(C)cc2)[n+](C)c2ccccc21 | inconclusive: 79.4 µM [inhibitor, single point] | 
CC(=NCc1ccncc1)C1=C(O)c2ccccc2C1=O |  | inconclusive: -85.9% [inhibitor]
CCC(=O)N1CCc2cc(CNS(=O)(=O)c3ccc(Br)s3)ccc21 |  | inactive: 1.92%
CCc1c(C)sc2c1CCN(C(=O)Nc1cc(C)ccc1OC)C2c1ccc(F)cc1 (stereo unspecified) |  | inactive: -1.54%
COc1ccc(-c2c(C)nn3c(N4CCN(c5ccccc5F)CC4)cc(C)nc23)cc1OC |  | inactive: -31.7%
Cc1ccc(NS(=O)(=O)c2ccc3[nH]c4c(c3c2)CCCCCC4)cc1 |  | inconclusive: -68.7% [inhibitor]
O=C1c2ccccc2-c2nc3ncnn3c(-c3ccccc3Cl)c21 | inconclusive: 89.1 µM [inhibitor, single point] | 
CCn1c(=O)c2ccccc2n2c(SCC(=O)N3CCc4ccccc4C3)nnc12 | inconclusive: 50.1 µM [inhibitor, partial curve] | 
C/C(=N/Nc1ccc([N+](=O)[O-])cc1)c1c[nH]c2ccccc12 | inconclusive: 6.31 µM [inhibitor, partial curve, poor fit] | 
O=C(Nc1ccccc1N1CCCC1)c1ccccc1Cl | active: 39.8 µM | 
OCCN1CCN(C(c2ccc(Cl)cc2Cl)c2sc3nc(-c4ccco4)nn3c2O)CC1 (stereo unspecified) | inconclusive: 14.1 µM [inhibitor, partial curve, poor fit] | 
